# Measured values: PubChem BioAssay (NCATS)
# Values joined by “and” are separate entries in the source; they are usually repeats but may differ in a detail not shown here. Equal values may be shown once. Inconclusive means that the source gave no clear call. Such entries were picked first, then a sample of the others. No potency is given beside an inconclusive call; the fits are too rough. Active and inactive are the calls of the source. Calls come from the whole dose curve; as a rule, active = well fitted inhibition curve with a large enough effect; inconclusive = small, poorly fitted or top-dose-only effect; inactive = no such curve, though single readings can be large or run the other way.
# Biological target: Furin (Homo sapiens) (UniProt P09958)
# Test: Furin counterscreen qHTS for Zika virus inhibitors (AID 1347149); note: nearly all actives have a fitted effect of over 70% in size
# Settings: furin enzymatic counterscreen, fluorogenic substrate; series mostly up to 57.5 µM
# Source text: Avindra Nath, Ph.D., National Institute of Neurological Disorders and Stroke (NINDS), Bethesda, MD
# Radhakrishnan Padmanabhan, Ph.D., Georgetown University (GU), Washington D.C.
# Zika Virus causes congenital defects, including microcephaly and is associated with Guillain-Barre syndrome, eningoencephalitis and myelitis in infected adult. […] Using a target-based approach, we hope to establish a screening paradigm to uncover novel, cell-active NS2B-NS3 protease (Zika Virus) specific inhibitors from NCATS' collection of small molecules using qHTS.
# Four assay panel was created to identify potential Zika Virus inhibitors. Namely, (1) GU unlinked NS2B-NS3 AMC tagged protease qHTS, (2) GU unlinked NS2B-NS3 Rhodamine tagged protease qHTS, (3) NINDS linked NS2B-NS3 AMC tagged protease qHTS, (4) NINDS linked NS2B-NS3 Rhodamine tagged protease qHTS. Active compounds were re-acquired and re-screened to confirm inhibition. Inhibitors were further screened against various confirmatory and counterscreens in dose response format.
# Early Translation Branch (ETB)
# National Center for Advancing Translational Sciences (NCATS), Rockville, MD
# National Institute of Health (NIH), Bethesda, Maryland
# 1536-well Furin BOC-RVRR-AMC Protocol:
# Human recombinant Furin Serine Protease was purchased from Peprotech (catalog #450-47; full length; Rocky Hill, NJ). Briefly, 3 microL of enzyme (final concentrations of 5 nM), in assay buffer (100 mM HEPES pH 7.0, 1 mM CaCl2 with 0.01% Triton X-100) were dispensed into a 1,536-well solid-bottom black plate (Greiner Bio One, Monroe, NC). Twenty-three nL of compounds (final concentration range 7.28 nM to 114 microM) or control Furin Inhibitor I (Dec-RVKR-CMK; final concentration range 0.248 nM to 8.12 microM) were transferred via Wako Pin-tool (Wako Automation, Richmond, VA). Samples were incubated (RT, protected from light) for 15 minutes followed by a 1 microL substrate addition of BOC-RVRR-AMC (final concentration of 2 microM; Km = ~15 muM90). Plates were then read immediately on a ViewLux High-throughput CCD imager (PerkinElmer, Waltham, MA) equipped with standard UV fluorescence optics (340(30) nm excitation, 450(20) nm emission), then incubated (37C, protected from light) for 15 or 30 minutes (~9% conversion). The change in fluorescence intensity over the 15-minute reaction period was normalized against no-inhibitor and no-enzyme controls and the resulting percent inhibition data were fitted to a 4-parameter Hill equation. Furin Inhibitor I was used as intraplate control.
# Potency is the fitted concentration of half-maximal effect; tags give direction and shape of the fitted curve.
# UniProt P09958, sequence (P09958 whole entry, looked up): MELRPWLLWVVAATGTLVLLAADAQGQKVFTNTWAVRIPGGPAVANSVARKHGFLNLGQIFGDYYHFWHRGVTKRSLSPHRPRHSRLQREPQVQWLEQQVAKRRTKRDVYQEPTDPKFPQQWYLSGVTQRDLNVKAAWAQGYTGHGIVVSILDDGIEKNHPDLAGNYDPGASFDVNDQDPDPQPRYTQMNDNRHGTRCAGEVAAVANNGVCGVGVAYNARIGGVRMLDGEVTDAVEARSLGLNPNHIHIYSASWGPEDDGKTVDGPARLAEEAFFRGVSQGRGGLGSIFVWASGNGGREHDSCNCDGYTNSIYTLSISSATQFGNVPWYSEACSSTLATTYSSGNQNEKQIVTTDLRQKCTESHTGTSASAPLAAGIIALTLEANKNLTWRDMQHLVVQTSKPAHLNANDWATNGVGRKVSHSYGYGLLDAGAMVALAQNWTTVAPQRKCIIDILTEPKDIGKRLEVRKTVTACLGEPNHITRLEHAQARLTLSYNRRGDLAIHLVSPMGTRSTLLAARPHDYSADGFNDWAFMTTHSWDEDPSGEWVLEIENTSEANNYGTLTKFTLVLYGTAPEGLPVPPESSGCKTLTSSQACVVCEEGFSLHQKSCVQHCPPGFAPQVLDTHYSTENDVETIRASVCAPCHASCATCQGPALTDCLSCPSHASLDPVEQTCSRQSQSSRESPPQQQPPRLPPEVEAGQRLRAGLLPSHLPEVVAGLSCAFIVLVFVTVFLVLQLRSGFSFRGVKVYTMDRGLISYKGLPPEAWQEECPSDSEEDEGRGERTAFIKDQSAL
row,Compound,Potency
1,O=C(O)c1c(Cl)c(Cl)c(Cl)c(Cl)c1-c1c2cc(I)c(=O)c(I)c-2oc2c(I)c(O)c(I)cc12,inactive
2,COc1cc(Nc2nc3ccccc3nc2NS(=O)(=O)c2ccc(NC(=O)c3ccc(C)c(OC)c3)cc2)cc(OC)c1,"inconclusive [inhibitor, full curve]"
3,COc1ccc2cc(-c3nc(-c4ccc(S(C)=O)cc4)[nH]c3-c3ccncc3)ccc2c1 (stereo not drawn),active: 3.83 µM
4,COc1c(N2CCNC(C)C2)c(F)cc2c(=O)c(C(=O)O)cn(C3CC3)c12 (stereo not drawn),active: 24.1 µM and active: 27.1 µM
5,Cc1ccn(-c2ccc(-c3ncco3)cc2)c(=O)c1-c1ccc2nc(N)ncc2c1,active: 21.5 µM
6,Cc1nc(C(=O)NCC(=O)O)c(O)c2ccc(Oc3ccccc3)cc12,"inconclusive [inhibitor, partial curve]"
7,COc1cc2nc(N3CCN(C(=O)c4ccco4)CC3)nc(N)c2cc1OC,active: 14.9 µM
8,NC(=O)c1ccc2nc(-c3ccc(Oc4ccc(Cl)cc4)cc3)[nH]c2c1,active: 34 µM
9,Oc1ccc(-c2nc(-c3ccc(F)cc3)c(-c3ccncc3)[nH]2)cc1,"inconclusive [inhibitor, partial curve]"
10,Cc1ccc(-n2[nH]c(C)c(N=Nc3cccc(-c4cccc(C(=O)O)c4)c3O)c2=O)cc1C,"inconclusive [inhibitor, full curve, poor fit]"
11,Cc1c(C)n(Cc2ccc(-c3ccccc3C(=O)O)cc2)c2ccc(C(=O)N[C@@H](C)c3ccc([N+](=O)[O-])cc3)cc12,"inconclusive [inhibitor, partial curve]"
12,CC1(C)CCC(CN2CCN(c3ccc(C(=O)NS(=O)(=O)c4ccc(NCC5CCOCC5)c([N+](=O)[O-])c4)c(Oc4cnc5[nH]ccc5c4)c3)CC2)=C(c2ccc(Cl)cc2)C1,inactive
13,CCOC(=O)Nc1ccc(NCc2ccc(F)cc2)nc1N,"inconclusive [inhibitor, full curve]"
